Out of some 280,000 compounds screened, about 1,100 (0.39%) were called active. Inconclusive means that the source gave no clear call. Such entries were picked first, then a sample of the others. Calls come from the whole dose curve; as a rule, active = well fitted inhibition curve with a large enough effect; inconclusive = small, poorly fitted or top-dose-only effect, or effect the other way; inactive = flat fitted curve, though single readings scatter. Potencies beside an inconclusive call are fits to weak or partial responses and may not hold up.
biological target: Microtubule-associated protein tau (Homo sapiens) (UniProt P10636); experiment: qHTS for Inhibitors of Tau Fibril Formation, Fluorescence Polarization; details: K18 P301L tau heparin fibrillization, Alexa594 FP, 6 h; series mostly up to 57.7 µM; activity, negative = inhibition: at the top concentration; note: nearly all actives have a fitted effect of over 55% in size
Sequence of UniProt P10636 (P10636 whole entry, looked up): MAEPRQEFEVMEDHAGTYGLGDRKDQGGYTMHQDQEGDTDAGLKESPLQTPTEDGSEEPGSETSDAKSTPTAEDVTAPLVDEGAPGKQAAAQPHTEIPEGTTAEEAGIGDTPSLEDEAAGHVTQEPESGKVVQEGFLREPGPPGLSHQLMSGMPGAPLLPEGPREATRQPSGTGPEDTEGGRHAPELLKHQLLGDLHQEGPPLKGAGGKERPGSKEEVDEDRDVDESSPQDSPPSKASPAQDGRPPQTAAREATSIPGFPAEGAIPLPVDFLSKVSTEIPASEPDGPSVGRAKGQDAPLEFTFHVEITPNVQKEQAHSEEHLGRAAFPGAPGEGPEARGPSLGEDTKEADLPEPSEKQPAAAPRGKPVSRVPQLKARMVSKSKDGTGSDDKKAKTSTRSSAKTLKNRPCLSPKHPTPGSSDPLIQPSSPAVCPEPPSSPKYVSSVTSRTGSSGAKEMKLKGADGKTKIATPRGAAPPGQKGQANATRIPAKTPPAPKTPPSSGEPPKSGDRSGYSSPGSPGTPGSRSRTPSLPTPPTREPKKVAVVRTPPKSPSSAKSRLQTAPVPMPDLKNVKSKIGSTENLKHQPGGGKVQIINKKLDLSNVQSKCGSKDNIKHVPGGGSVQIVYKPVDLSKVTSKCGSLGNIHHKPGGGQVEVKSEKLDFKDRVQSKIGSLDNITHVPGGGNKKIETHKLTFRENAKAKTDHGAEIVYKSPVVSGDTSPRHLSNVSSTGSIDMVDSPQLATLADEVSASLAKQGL
How it was run: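 Compound effects on tau fibrillization are measured by Alexa 594 fluorescence polarization (ex 555, em 632 nm). K18 P301L tau is used at 15 uM with 0.24 uM labeled tracer, and 20 uM heparin induces aggregation over 6 hr at 37 C.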
% is set by controls: 0 for no effect and ±100 for the full control effect; potency is the fitted concentration of half-maximal effect; tags give direction and shape of the fitted curve.

activity, negative = inhibition, inactive:
O=Cc1cnc(N2CCCCC2)s1 10.1%
CC(C)c1ccc(NC(=O)COC(=O)[C@H](CCC(N)=O)NC(=O)c2ccc(F)cc2)cc1 -4.13%
CC(C)CC1=NN(C(=O)c2ccco2)C(O)(C(F)(F)F)C1 (centres undefined) 4.52%
CN(N=Nc1cccc([N+](=O)[O-])c1)c1cccc([N+](=O)[O-])c1 -3.18%
C/C(=C\C(=O)c1ccc(F)cc1)Nc1ccc(N2CCOCC2)cc1 9.81%
COCCN(CCOC)c1nc(C)nc2c1nc(-c1ccccc1)n2CCCN(C)C 2.65%
CCOC(=O)C1=C(N)OC2=C(C(=O)CCC2)C1c1ccc(C)s1 (centres undefined) 3.37%
Cc1ccc(C)c(Cn2c(=O)c3c(nc4n3CCN4c3ccccc3)n(C)c2=O)c1 -3.43%
COc1ccccc1NC(=O)CCCn1c(=S)[nH]c2ccccc2c1=O -5.91%
Cc1cc(C(=O)N/N=C/c2ccc(Cl)c([N+](=O)[O-])c2)c(C)n1-c1ccc(F)cc1 2.24%
O=C(Cc1cccs1)N1CCN=C1SCc1ccc(Br)cc1 -4.9%
CCc1nn2cc(C(=O)c3cc(C)ccc3O)cnc2c1-c1ccc(F)cc1 -2.32%
Cc1ccc(-c2ccc(=O)n(CCC(=O)NCCc3ccccc3)n2)cc1 6.49%
CCCCN(C)CCNC(=O)c1cc2c(=O)n(C)c3ccccc3c2n1C 0.225%
COc1ccccc1/C=C/CN1CCN(c2ccccc2)CC1 4.63%
CCOc1ccc(C(=O)c2oc3ccccc3c2NC(=O)c2cc(-c3ccc(C)cc3)on2)cc1 -1.72%
O=c1[nH]c2ccc(Cl)cc2c(O)c1Cc1ccccc1 -10.3%
CCOc1ccccc1CNC(=O)Cn1nc(N2CCN(c3ccccc3)CC2)ccc1=O 2.26%
CCN(CC)C(=O)c1ccc(/C=C/c2c[nH]c3ccccc23)[n+](C)c1 -3.23%
COc1ccc(Cl)cc1NC(=O)CSc1ccc2nnc(CCNS(=O)(=O)c3ccccc3)n2n1 -0.197%
Cc1ccc(NC(=O)c2scc3c2CCCC3)cc1 -6.84%
CSc1c(-c2ccccc2)nc2ccc(Cl)cc2c1C(=O)O 1.73%
Cc1cc(C)c2c(c1)/C(=C/C(=O)c1ccc(Br)s1)C(=O)N2 -13.1%

Potency, inactive:
CCOc1ccc(Cn2c(=O)sc3ccccc32)cc1

Potency, inconclusive:
OCC1(CO)COC2(CCCC2)N1 0.501 µM [inhibitor, single point]
Cc1ccc(C(=O)OCC(=O)Nc2ccc(N(C)C)cc2)cc1NC(=O)c1ccco1 1 µM [activator, full curve, poor fit]
COc1ccc(-c2cn(-c3ccc(C)cc3)c(=O)n2CC(=O)Nc2ccc(OC)c(OC)c2)cc1 14.1 µM [activator, partial curve]
Cc1ccc(NC(=O)/C=C/c2ccc([N+](=O)[O-])s2)c(C)c1 7.08 µM [inhibitor, partial curve]
CCC(=O)C1=C(c2ccc(C)cc2)N(C(=O)CC)n2c(nnc2C2CCCCC2)S1 28.2 µM [inhibitor, single point]
CC1=C(C(=O)Nc2ccc(Cl)cc2)C(c2ccccc2)n2ncc(C(=O)Nc3ccccc3)c2N1 (centres undefined) 25.1 µM [inhibitor, partial curve]
C=CC(C1=CC(=O)C(OC)=C(OC)C1=O)c1ccccc1 (centres undefined) 35.5 µM [inhibitor, partial curve]
CC(C)Cn1c(-c2cccs2)nc2nc3ccccc3nc21 0.112 µM [inhibitor, full curve, poor fit]
COc1cc2c3nnc(-c4ccc(F)cc4)c-3cn(Cc3ccc(F)cc3)c2cc1OC 39.8 µM [inhibitor, single point]
N/C(=N\OC(=O)Nc1cccc(C(F)(F)F)c1)c1ccno1 25.1 µM [inhibitor, partial curve]
COc1ccccc1/C=N/NC(=O)c1ccc(NC(=O)c2ccccc2Br)cc1 31.6 µM [inhibitor, single point]
O=C1S/C(=C\C=C\c2ccco2)C(=O)N1c1ccccc1 0.398 µM [inhibitor, partial curve, poor fit]
COc1ccc(NC(=O)Cn2cc(S(=O)(=O)c3ccccc3)c(=O)c3cc4c(cc32)OCO4)cc1 31.6 µM [inhibitor, single point]
CCC1=C(OC(=O)N(CC)CC)N2C(=O)OC(=NCCc3c[nH]c4ccccc34)[C@]2(C)[C@H]2C1=CC[C@H]1C(=O)N(CC)C(=O)[C@H]12 1.12 µM [activator, partial curve]
CCn1cc(C(=O)N2CCN(c3ccccc3)CC2)c(=O)c2cc(S(=O)(=O)N3CCOCC3)ccc21 0.199 µM [inhibitor, full curve, poor fit]
CCC(Oc1ccc(F)cc1)C(=O)Nc1c(C(=O)c2ccc(C)cc2)oc2ccccc12 (centres undefined) 25.1 µM [inhibitor, partial curve]
O=C(Nc1cccc(-c2nc3ccccc3[nH]2)c1)c1ccco1 22.4 µM [inhibitor, single point]
Cc1cc2oc(=O)cc(Cn3ncc(Cl)c(Cl)c3=O)c2cc1Cl 22.4 µM [inhibitor, partial curve, poor fit]
O=C1C(Nc2ccccc2)=C/C(=N/S(=O)(=O)c2cccs2)c2ccccc21 39.8 µM [inhibitor, single point]
COc1cccc(CN2c3ccccc3-c3nc(SCC(=O)Nc4ccccc4Cl)ncc3S2(=O)=O)c1 20 µM [inhibitor, partial curve, poor fit]
COc1ccc(Cl)cc1-c1n[nH]c(=S)n1C1CCCCC1 22.4 µM [inhibitor, single point]
O=C(/C=C/c1c[nH]c2ccccc12)c1cccc2ccccc12 22.4 µM [inhibitor, partial curve]
Cc1ccc(C)c(Sc2ccc(NC(=O)CCl)cc2)c1 20 µM [inhibitor, single point]
CN(C)C=Nc1c(Br)cc(Br)c2nonc12 10 µM [inhibitor, partial curve]
COc1ccc(Cl)cc1C(Nc1cccnc1)c1ccc2cccnc2c1O (centres undefined) 15.8 µM [inhibitor, partial curve]
COc1ccc(C2CC(c3ccccc3)=NN2c2ccc(/C=N/NC(=O)c3ccncc3)cc2)cc1 (centres undefined) 3.55 µM [activator, partial curve]
COc1cc(/C=N/N=C(/N)c2nonc2N)cc(Br)c1OCc1ccccc1C 15.8 µM [inhibitor, partial curve]
Cn1c(=S)n(/N=C/c2ccc3c(c2)OCO3)c2ccccc21 12.6 µM [inhibitor, partial curve]
CCOc1ccccc1NC(=O)C1CCCN1S(=O)(=O)c1ccc2nc(-c3ccccc3)[nH]c2c1 (centres undefined) 10 µM [inhibitor, partial curve]
O=C(Nc1ccc(C(=O)OC[C@@H]2CCCN3CCCC[C@H]23)cc1)c1cccc(Br)c1 25.1 µM [inhibitor, single point]
CC(C)CN(CC(C)C)CC(O)Cn1cc(/C=C/C(=O)c2ccccc2)c2ccccc21 (centres undefined) 8.91 µM [inhibitor, full curve]
CNC(=O)NC(=O)C(OC(=O)c1cccc(S(=O)(=O)N2CCCCC2)c1)c1ccccc1 (centres undefined) 31.6 µM [activator, single point]
COc1ccc(C)c2sc(NC(=O)c3ccc(S(=O)(=O)N4CCCC4)cc3)nc12 5.01 µM [inhibitor, single point]
CCc1ccc(NC(=O)C2=CC(c3cccs3)=NS(=O)(=O)N2C)cc1 39.8 µM [inhibitor, single point]
Cc1ccc(C(=O)Nc2cccc(S(=O)(=O)N3CCOCC3)c2)cc1[N+](=O)[O-] 35.5 µM [inhibitor, single point]
CCCSc1nc(N)nc(-c2cccs2)c1C#N 44.7 µM [inhibitor, single point]
CCOC(=O)c1ccc(-c2ccc(/C=N/NC(=O)CN(c3ccccc3Br)S(C)(=O)=O)o2)cc1 17.8 µM [inhibitor, single point]
Cc1cc(Nc2ccc(Br)cc2F)n2nc(C)nc2n1 17.8 µM [inhibitor, single point]
CCOC(=O)C1C(=O)NC(SCC(=O)Nc2nccs2)=C(C#N)C1c1ccccc1OCC (centres undefined) 28.2 µM [inhibitor, single point]
COc1ccccc1N1CCN(C(=O)CSc2ncnc3scc(-c4ccccc4)c23)CC1 39.8 µM [activator, single point]
CCCCC#CC1C=CC(OC(C)=O)C(COC(C)=O)O1 (centres undefined) 5.62 µM [inhibitor, partial curve, poor fit]
O=C(CCC(=O)CCN1CCCCC1)CCN1CCCCC1 2.24 µM [inhibitor, full curve]

Potency, active:
COc1ccc(NC(=O)c2ccc3c(c2)NC(=O)CS3)cc1S(=O)(=O)Nc1ccc(Br)cc1 28.2 µM
CCN1CCc2c(sc(-n3cccc3)c2C(C)NC(=O)Nc2ccc(Br)cc2)C1 (centres undefined) 25.1 µM
Cc1ccc(S(=O)(=O)/C(C#N)=C/c2c[nH]c3ccccc23)cc1 12.6 µM

Source: PubChem BioAssay AID1468 (National Center for Advancing Translational Sciences (NCATS), 2008)
